# Results: PubChem BioAssay AID686971 (National Center for Advancing Translational Sciences (NCATS), 2013)
# About 7,500 (2.1%) of roughly 360,000 compounds were called active. Inconclusive results, whose numbers are uncertain, are shown with a selection of clear calls. Calls follow the shape of the dose curve; as a rule, active = well fitted cell-killing curve with a large enough effect; inconclusive = small, poorly fitted or top-dose-only effect, or effect the other way, or another doubt; inactive = no such curve, though single readings can be large or run the other way. Potencies of inconclusive entries are left out as doubtful fits.
# Assay: qHTS for induction of synthetic lethality in tumor cells producing 2HG: qHTS for the HT-1080-IDH1KD cell line;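 as to activity, negative = toxicity: 0% = DMSO wells and -100% = cell-free medium wells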
# Settings: HT-1080 IDH1 knockdown viability, ATP luminescence, 48 h; activity, negative = toxicity: at 46.1 µM (top of the series) unless noted
# Procedure, shortened: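 After a 2 h attachment period, IDH1KD HT-1080 cells took pin-transferred compound for 48 h at 37 °C; ATP-based luminescence after 10 min room-temperature reagent incubation reported viability.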
# Potency is read from the fitted curve at half-maximal effect; tags tell the direction and shape of the fitted curve.
Compound,Potency,"activity, negative = toxicity"
O=C(CCn1c(=O)oc2ccccc21)N1CCN(c2ccccc2Cl)CC1,active: 11.6 µM,–
COC(=O)C1=Nc2ccccc2/C1=C\c1c(O)n(-c2ccc(Br)cc2)c(=O)[nH]c1=O,"inconclusive [cytotoxic, single point]",–
COc1cc(/C=N/NC(=O)CN2CC(c3ccccc3)CC2=O)ccc1OC(=O)N(C)C (stereo unspecified),inactive,–
O=C(CNC(=O)OCc1ccccc1)Nc1ccc(Br)cc1C(=O)c1ccccc1,"inconclusive [cytotoxic, single point]",–
CCOc1cc(CNCCc2c[nH]c3ccccc23)cc(Cl)c1OC,active: 20.6 µM,–
CCOC(=O)C1(c2ccccc2)CCN(CCC(=O)Nc2cccc(Br)c2)CC1,active: 23.1 µM,–
Cc1cccc(N2C(=O)NC(=O)/C(=C\C=C\c3ccco3)C2=O)c1,"inconclusive [cytotoxic, single point]",–
O=C1CN=C(c2cccs2)c2c(sc3c2CCCC3)N1,active: 10 µM,–
COc1ccc(/C=C/C(=O)NC(=S)NCCc2ccc(OC)c(OC)c2)cc1,active: 10 µM,–
C1=C(c2c[nH]c3ccccc23)CCN(Cc2ccccc2)C1,"inconclusive [cytotoxic, partial curve]",–
O=C(CCN1CC2CCC(CC2)C1)c1cccs1,"inconclusive [cytotoxic, single point]",–
CCOC(=O)[C@]12Cc3ccccc3[C@H]1N(CCC(=O)OC)C(=O)c1cc(OC)ccc12,"inconclusive [cytotoxic, single point]",–
Cc1ccc(N2C(=O)CC(=O)NC2=O)cc1Cl,inactive,–
O=[N+]([O-])c1ccc(-c2ccccc2)c([As](=O)(O)O)c1,inactive,–
O=C1NC(=O)N(c2ccccc2)C(=O)/C1=C/c1coc2ccc(O)cc2c1=O,"inconclusive [cytotoxic, single point]",–
NC(=Nc1ccccc1)NN=Cc1c[nH]c2ccccc12,"inconclusive [cytotoxic, full curve]",–
CCOP(=O)(Nc1ccc2c(c1)C(=NNC(N)=S)c1ccccc1-2)OCC,"inconclusive [cytotoxic, single point]",–
COc1ccc(NC(c2ccccc2F)P(=O)(Oc2ccccc2)Oc2ccccc2)cc1 (stereo unspecified),"inconclusive [cytotoxic, partial curve]",–
CCOP(=O)(OCC)/C(=N/OC(=O)c1ccccc1C)C(N)=O,"inconclusive [cytotoxic, single point]",–
COc1ccc(CNCCc2ccc3c(c2)OCO3)c(OC)c1OC,"inconclusive [cytotoxic, single point]",–
Nc1cc(Cl)c2nonc2c1[N+](=O)[O-],active: 11.6 µM,–
Cc1cc(C=C2C(=O)NC(=O)NC2=O)c(C)n1-c1ccc2c(c1)OCO2,inactive,–
O=c1c2ccccc2nc(-c2ccccc2Cl)n1-c1ccc(O)cc1,"inconclusive [cytotoxic, single point]",–
CCCCCc1nc2c(c(=O)c3ccccc3n2C)c(=O)n1C1CCCCCC1,"inconclusive [cytotoxic, single point]",–

Compound,Potency,"activity, negative = toxicity"
COc1ccc2cc1Oc1ccc(cc1)C[C@H]1c3cc(c(OC)cc3CCN1C)Oc1c(O)c(OC)cc3c1[C@H](C2)N(C)CC3,"inconclusive [cytotoxic, single point]",–
S=C=Nc1cccc(C2(N3CCCCC3)CCCCC2)c1,active: 18.4 µM,–
Cc1ccc(S(=O)(=O)N2CCC(C(=O)N3CCC4(CC3)OCCO4)CC2)cc1,inactive,–
Cn1c(N2CCNCC2)nc2ccccc21,inactive,–
FC(F)(F)Oc1ccc(C2NCc3ccccc3-n3cccc32)cc1 (stereo unspecified),inactive,–
Oc1c(Br)c(Br)c(Br)c(Br)c1Br,"inconclusive [cytotoxic, single point]",–
COC(=O)C1=C(c2ccc(F)cc2OCc2ccccc2)C[C@@H]2CC[C@H]1N2C(=O)N1CCC(C)CC1,"inconclusive [cytotoxic, single point]",–
c1ccc2c(c1)CSc1ccccc1C2C1=NCCN1 (stereo unspecified),"inconclusive [cytotoxic, single point]",–
COc1cc(NS(=O)(=O)c2ccc3c(c2)oc(=O)n3C)cc(OC)c1OC,"inconclusive [cytotoxic, partial curve]",–
CCOC(=O)c1c(C)c(C(=O)Nc2cc(OC)ccc2OC)c(C)n1CC,active: 7.08 µM,–
Cc1cc(C)c2c(ccc3cccc[n+]32)c1,"inconclusive [cytotoxic, partial curve]",–
CC(C)Cn1c(=O)c(C(=O)Nc2ccccc2S(N)(=O)=O)c(O)c2ccccc21,"inconclusive [cytotoxic, single point]",–
CCCCn1c(O)c(C(C)=NCc2cc(OC)cc(OC)c2)c(=O)[nH]c1=O,inactive,–
O=C(N/N=C/c1c(O)n(CCc2ccc(F)cc2)c(=O)[nH]c1=O)c1ccncc1,–,inconclusive: 31.2%
O=C(c1ccco1)c1cn(Cc2ccc(Cl)cc2)c2ccccc12,"inconclusive [cytotoxic, single point]",–
COc1ccc(C(c2nnnn2-c2ccc(OC)cc2)N2CCC3(CC2)C(=O)NCN3c2ccccc2)cc1 (stereo unspecified),"inconclusive [cytotoxic, single point]",–
CCn1c(NN=O)nc2ccccc21,"inconclusive [cytotoxic, partial curve]",–
CC(CC(C#N)(c1ccccc1)c1ccccc1)N(C)C (stereo unspecified),inactive,–
O=c1[nH]c2ccccc2n1C1CCN(C(CCc2ccccc2)c2nnnn2C2CCCC2)CC1 (stereo unspecified),"inconclusive [cytotoxic, partial curve]",–
Cc1ccc(/C=C2\C(=O)NC(=O)N(Cc3ccccc3Cl)C2=O)o1,inactive,–
COC(=O)C1=C(c2cccc(C#N)c2)C[C@@H]2CC[C@H]1N2C(=O)N1CCc2cc(OC)c(OC)cc2C1,inactive,–
CN1/C(=C\C=C2C(=O)NC(=O)NC2=O)C(C)(C)c2ccccc21,"inconclusive [cytotoxic, partial curve]",–
CCOC(=O)C1=C(Cc2ccc(Cl)cc2)C(=O)c2ccccc2C1=O,active: 10 µM,–
O=C1NC[C@H](CCCCN2C[C@H](Cc3ccccc3)N(CCc3ccccc3)C(=O)C2=O)N(CC2CCCCC2)C1=O,"inconclusive [cytotoxic, single point]",–

Compound,Potency,"activity, negative = toxicity"
O=C(C(=O)N1CCOCC1)c1cn(Cc2ccccc2)c2ccccc12,inactive,–
O=C1/C(=C/c2cccc([N+](=O)[O-])c2)N2CCC1CC2,inactive,–
COc1ccc(CN2Cc3cc(-c4ccc(OC)cc4)ccc3-n3nncc3C2)cc1,"inconclusive [cytotoxic, single point]",–
Oc1ccccc1C1NCc2ccccc2-n2cccc21 (stereo unspecified),"inconclusive [cytotoxic, partial curve]",–
COc1cc2c(cc1OC)-c1c3c(cc4c1[C@@H](C2)N(C)CC4)OCO3,"inconclusive [cytotoxic, single point]",–
CCOC(=O)C1=C(C)N=C2c3ccccc3C(=O)C2C1c1ccc(Cl)cc1 (stereo unspecified),"inconclusive [cytotoxic, single point]",–
CCOC(=O)c1c(C)n(Cc2ccc3c(c2)OCO3)c2ccc(O)cc12,"inconclusive [cytotoxic, single point]",–
Nc1c(C(=O)NCc2ccco2)c2nc3ccccc3nc2n1CCN1CCCCC1,–,inconclusive: -69.4%
CC(C)OC(=O)c1c(N)n(CC2CCCO2)c2nc3ccccc3nc12 (stereo unspecified),inactive,–
Cc1ccc(S(=O)(=O)CC(C)(O)C(=O)Nc2cccc(C(F)(F)F)c2)cc1 (stereo unspecified),"inconclusive [cytotoxic, single point]",–
COc1ccc(NP(=O)(Oc2ccc(Cl)cc2)Oc2ccc(Cl)cc2)cc1OC,"inconclusive [cytotoxic, single point]",–
CN(CC=CCN(C)P(=S)(N1CC1)N1CC1)P(=S)(N1CC1)N1CC1,inactive,–
Cn1cccc1/C=C1\C(=O)NC(=O)N(Cc2ccccc2)C1=O,"inconclusive [cytotoxic, partial curve]",–
CC(C)(C)OC(=O)COc1cc(OCC(=O)OC(C)(C)C)c2c(=O)cc(-c3ccccc3)oc2c1,"inconclusive [cytotoxic, single point]",–
COC(=O)C1=C(c2cccc(OC)c2OC)C[C@@H]2CC[C@H]1N2C(=O)NCc1ccco1,inactive,–
O=C(COC(=O)c1ccc(O)cc1)Nc1ccc(Cl)cc1C(=O)c1ccccc1,"inconclusive [cytotoxic, partial curve]",–
CCCCCSc1cc(OC)c(CCN)cc1OC,"inconclusive [cytotoxic, single point]",–
CN1C(=O)NC(=O)/C(=C\c2ccc([N+](=O)[O-])o2)C1=O,inactive,–
O=C(N/N=C/c1ccccc1OC(=O)N1CCOCC1)c1cccs1,"inconclusive [cytotoxic, single point]",–
Cn1c(O)c(C(=Nc2ccc(F)cc2)c2ccccc2Cl)c(=O)n(C)c1=O,inactive,–
COc1cc(/C=C/c2nc3ccccc3c(=O)n2-c2ccc(O)cc2)ccc1O,active: 18.4 µM,–
CC(C)C[C@H]1C(=O)N2CCCC2[C@]2(O)O[C@](NC(=O)[C@@H]3C=C4c5cccc6[nH]cc(c56)CC4N(C)C3)(C(C)C)C(=O)N12 (stereo partly specified),inactive,–
CN(CC(=O)Nc1nc2ccccc2s1)S(=O)(=O)c1ccc(Br)cc1,"inconclusive [cytotoxic, single point]",–
